Variants at the floor of the assay are shown more often than the library holds them.
B1: TPR 5TU (parent)
chain: GGAUCUUCUCGAUCUAACAAAAAAGACAAAUCUGCCACAAAGCUUGAGAGCAUCUUCGGAUGCAGAGGCGGCAGCCUUCGGUGGCGCGAUAGCGCCAACGUUCUCAACUAUGACACGCAAAACGCGUGCUCCGUUGAAUGGAGUUUAUCAUG

Variants of: B1
Assay: polymerase ribozyme fitness, log enrichment relative to wild type (log ratio); higher = more active; in vitro selection for triplet polymerase activity
Procedure, shortened: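 Fitness measures genotype enrichment against wild-type enrichment on a logarithmic scale, with inverse-variance-weighted averaging of replicates. The logarithm is base 2, and genotypes were kept only with ≥10 input reads and ≥1 read per output in Illumina sequencing. The sequenced libraries came from one triplicate in vitro selection round, including frozen incubation at −7 °C, of PCR-built, transcribed mutant libraries of each subunit of a heterodimeric triplet polymerase ribozyme.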

| Variant | polymerase ribozyme fitness (log ratio) |
| --- | --- |
| G50U A60C G84A | -2.47 |
| G50U A60C G94A U104G A113U C118U U127C | ≤ -4.2 |
| G50U A60U C75U C93A C118A | ≤ -4.2 |
| G50U C51U G58U C108G C123G | ≤ -4.2 |
| G50U C54G U55A A60C C69U G74A G92C U102A U134C | ≤ -4.2 |
| G50U C54U C93U U104G C116G A142U | ≤ -4.2 |
| G50U C57U A73U G86U G126U | ≤ -4.2 |
| G50U C69U C99U | -3.41 |
| G50U C72A U82C A91U A119U U144A U148A | ≤ -4.2 |
| G50U C75G G86U C87A A89U | ≤ -4.2 |
| G50U C79G A98U C99G | ≤ -4.2 |
| G50U C79G G88U G94C U101C C125A | ≤ -4.2 |
| G50U C85U G88C U135G | ≤ -4.2 |
| G50U C87U C96A | -1.48 |
| G50U C87U G152U | -4.17 |
| G50U C93U C103G G141C | ≤ -4.2 |
| G50U C95G A122U G152C | ≤ -4.2 |
| G50U C95G A142C U148A | ≤ -4.2 |
| G50U C99A | -1.59 |
| G50U C125G | -0.442 |
| G50U G59A A60G U77A G94U | ≤ -4.2 |
| G50U G59A A60G U77A G94U G140A | ≤ -4.2 |
| G50U G68A G86A C96U C123G C129G | ≤ -4.2 |
| G50U G81A C95U | 0.505 |

| Variant | polymerase ribozyme fitness (log ratio) |
| --- | --- |
| G50U G81C C108A A120G U130A | ≤ -4.2 |
| G50U G81C U134A | -2.19 |
| G50U G83U C85G | -4.13 |
| G50U G88C U102G C132G G136U U148C | ≤ -4.2 |
| G50U G94A | -0.00242 |
| G50U U53C U56A G70A G84C A91C A119C | ≤ -4.2 |
| G50U U53G C69G G94A | ≤ -4.2 |
| G50U U53G G80A C85U U90C C93A A97U C99G A119G U127C | ≤ -4.2 |
| G50U U53G G100C C125U U130G | ≤ -4.2 |
| G50U U55A C85G G92A A115U | ≤ -4.2 |
| G50U U61C G84A A91C A107G C116G U148C | ≤ -4.2 |
| G50U U77A | ≤ -4.2 |
| G50U U82G C96G A107U A138U C149U | ≤ -4.2 |
| G50U U90G | ≤ -4.2 |
| C51A A52C A73G G83U U127C | ≤ -4.2 |
| C51A A60G G65U G84U G94C U146C | ≤ -4.2 |
| C51A A66G G71A G80C G94C A113G | ≤ -4.2 |
| C51A C57A G67U G68A C85G C87A U139C G141C A142U | ≤ -4.2 |
| C51A C72U G92U G94A | ≤ -4.2 |
| C51A C75G G86A U90G G136C | ≤ -4.2 |
| C51A C79A | ≤ -4.2 |
| C51A C79U C93A U104A G140C | ≤ -4.2 |
| C51A C85U A91U A120C A137G | ≤ -4.2 |
| C51A C96A A107U A115C | ≤ -4.2 |

| Variant | polymerase ribozyme fitness (log ratio) |
| --- | --- |
| C51A C99G U102G | ≤ -4.2 |
| C51A G59A U77C C105U A115G | ≤ -4.2 |
| C51A G59U G84U | ≤ -4.2 |
| C51A G67C G92U C95A U144A | ≤ -4.2 |
| C51A G70A G71A U78G A91U G117A U134G U135A | ≤ -4.2 |
| C51A G71A G92A | ≤ -4.2 |
| C51A G71C C75U C87U U102G A106U G136C | ≤ -4.2 |
| C51A G74C U77A C85G G100U U151C | ≤ -4.2 |
| C51A G86A C118A | -3.43 |
| C51A G86C A89U A113U G126A G141U | ≤ -4.2 |
| C51A G92U C105G | ≤ -4.2 |
| C51A U55A C85U U102G A150G | ≤ -4.2 |
| C51A U55A C93A U101C G112C | ≤ -4.2 |
| C51A U55G A60G C93U C108A | ≤ -4.2 |
| C51A U55G G58U C95A | -1.74 |
| C51A U56A C79A C93G A98C C99U C118A C123G | ≤ -4.2 |
| C51A U77C G84A C96U | ≤ -4.2 |
| C51A U127G A137C | ≤ -4.2 |
| C51G A52C A107U A137C | ≤ -4.2 |
| C51G A52G C72U G74U A98G C118U A119C G140C | ≤ -4.2 |
| C51G A60U U78A A113G G128A | ≤ -4.2 |
| C51G C57U G67C C87G A91G | ≤ -4.2 |
| C51G C75A C93U A113C U144C | ≤ -4.2 |
| C51G C79A C149U | ≤ -4.2 |

| Variant | polymerase ribozyme fitness (log ratio) |
| --- | --- |
| C51G C87A C93G C105A A113U | ≤ -4.2 |
| C51G C125U U144C | -4.07 |
| C51G G68A C93G U101G | ≤ -4.2 |
| C51G G70C G84U U146G A150C | ≤ -4.2 |
| C51G G71U U90A C93U | ≤ -4.2 |
| C51G U53A G141U | ≤ -4.2 |
| C51G U56G C93U | -3.95 |
| C51G U148A | ≤ -4.2 |
| C51G U148G | ≤ -4.2 |
| C51U A52U G74C A113C C131A | ≤ -4.2 |
| C51U A52U G92U G100U | ≤ -4.2 |
| C51U A60G C87A | ≤ -4.2 |
| C51U A60U G84A A98G A121C G143U A147C | ≤ -4.2 |
| C51U A89G C99U A150G | -3.67 |
| C51U A91G C93U | ≤ -4.2 |
| C51U A98U U135C U144A | -3.82 |
| C51U C57A G58A C79G U127A | ≤ -4.2 |
| C51U C57A U82C C85A A110C A121U | ≤ -4.2 |
| C51U C57G A60C C69U C85G C118A | ≤ -4.2 |
| C51U C69G G92A C93U C116U U139G | ≤ -4.2 |
| C51U C69U C96G | -3.06 |
| C51U C72U G92C A98G U127G A138C G140A | ≤ -4.2 |
| C51U C75G A91U A138G | ≤ -4.2 |
| C51U C75U C118U | -1.3 |

| Variant | polymerase ribozyme fitness (log ratio) |
| --- | --- |
| C51U C75U G88A C93U G94A G136C | ≤ -4.2 |
| C51U C85G A115C | -1.9 |
| C51U C87A | ≤ -4.2 |
| C51U C87A U127A A142C | ≤ -4.2 |
| C51U C95A A98U C116G | 0.822 |
| C51U C96A C105A C118U | -2.94 |
| C51U C99U | -0.392 |
| C51U G58A | -1.32 |
| C51U G58U G112C | ≤ -4.2 |
| C51U G67C C85A G133U | ≤ -4.2 |
| C51U G74U C75A | ≤ -4.2 |
| C51U G84A C96A C149U | -2.56 |
| C51U G84U | -1.52 |
| C51U G86U | -1.45 |
| C51U G88C | -4.09 |
| C51U G88U U90C G94A C95U A147G | ≤ -4.2 |
| C51U G92A G133U | ≤ -4.2 |
| C51U U56A C57A C105G A122G | -2.19 |
| C51U U56A C87A C95U C118A U139C | ≤ -4.2 |
| C51U U82A C95U | -1.29 |
| C51U U82A G86A A98U A147G | ≤ -4.2 |
| A52C A60C C79U C93A G152U | ≤ -4.2 |
| A52C A89U C95U A110G G126U A142G U146A | ≤ -4.2 |
| A52C A89U C96G G141U | -1.47 |

| Variant | polymerase ribozyme fitness (log ratio) |
| --- | --- |
| A52C A91U C93A G133C | ≤ -4.2 |
| A52C A98U | -0.983 |
| A52C C54A | ≤ -4.2 |
| A52C C54A A137U A147C | ≤ -4.2 |
| A52C C54U G68A C93U C103A A106G A110U | ≤ -4.2 |
| A52C C57A A66C A97G G141U | ≤ -4.2 |
| A52C C57A A73G C132G | ≤ -4.2 |
| A52C C57U C85U U135A | -1.62 |
| A52C C57U G81C | -1.59 |
| A52C C75A G84A C108G A110C | ≤ -4.2 |
| A52C C75G C76G C85G | ≤ -4.2 |
| A52C C75U A97U U109G C114A | -3.53 |
| A52C C76G G92U | ≤ -4.2 |
| A52C C76G G94C | ≤ -4.2 |
| A52C C79A G81A G84U A110G G112C | ≤ -4.2 |
| A52C C85A A106U C116A C118U | ≤ -4.2 |
| A52C C85A A121G | -1.8 |
| A52C C87G G94U A97G A115C | ≤ -4.2 |
| A52C C96U U130A U144G A147C | -3.6 |
| A52C C103A A147C | ≤ -4.2 |
| A52C G58A A147U | -0.233 |
| A52C G58U G62C C96G G141U | ≤ -4.2 |
| A52C G59U C75U G84U C108A U109G U139A U145G | ≤ -4.2 |
| A52C G62C A120G G140U | -4.1 |

| Variant | polymerase ribozyme fitness (log ratio) |
| --- | --- |
| A52C G67C A89C A106G A107G | ≤ -4.2 |
| A52C G68A G81U G92A C125A G136U G140U U151A | ≤ -4.2 |
| A52C G68U | ≤ -4.2 |
| A52C G70A U90G A106U | ≤ -4.2 |
| A52C G80C | ≤ -4.2 |
| A52C G81A G86U | -2.1 |
| A52C G81A G92U C114A | ≤ -4.2 |
| A52C G84U | -2.64 |
| A52C G88A G94C C95U A98U C123U C125U | ≤ -4.2 |
| A52C G88A U146G A150C | ≤ -4.2 |
| A52C G88C C103A | ≤ -4.2 |
| A52C G88U C105A A122G A150C | ≤ -4.2 |
| A52C G140C | ≤ -4.2 |
| A52C G143C | -3.51 |
| A52C U53A | -3.29 |
| A52C U53A C85G G117A G141A | ≤ -4.2 |
| A52C U53A G86A C87U C105A A106U | ≤ -4.2 |
| A52C U53C A66G U82G C87G | ≤ -4.2 |
| A52C U55A G62C G84A C105U C114U G141A C149A | ≤ -4.2 |
| A52C U55A U61A A98U C105U A106U | ≤ -4.2 |
| A52C U55A U82C | -2.36 |
| A52C U55G G58C G59A A66C | ≤ -4.2 |
| A52C U55G G81A C87A C105G | ≤ -4.2 |
